Measurements published in article PMC6919601, “Identification of Plasmodium dipeptidyl aminopeptidase allosteric inhibitors by high throughput screening” (PLoS ONE, 2019).
Hit rate of the full screen: of about 110,000 compounds, about 230 (0.21%) showed an effect of 50% or more. The list shows a part of the results.

What follows are compounds tested against DPAP1 (Plasmodium falciparum, UniProt Q8IIJ9) (assay: primary screen, percent inhibition; read by cleavage of a fluorogenic dipeptide substrate; higher = more effect of the substance).
DPAP1, sequence (Q8IIJ9 whole entry, looked up): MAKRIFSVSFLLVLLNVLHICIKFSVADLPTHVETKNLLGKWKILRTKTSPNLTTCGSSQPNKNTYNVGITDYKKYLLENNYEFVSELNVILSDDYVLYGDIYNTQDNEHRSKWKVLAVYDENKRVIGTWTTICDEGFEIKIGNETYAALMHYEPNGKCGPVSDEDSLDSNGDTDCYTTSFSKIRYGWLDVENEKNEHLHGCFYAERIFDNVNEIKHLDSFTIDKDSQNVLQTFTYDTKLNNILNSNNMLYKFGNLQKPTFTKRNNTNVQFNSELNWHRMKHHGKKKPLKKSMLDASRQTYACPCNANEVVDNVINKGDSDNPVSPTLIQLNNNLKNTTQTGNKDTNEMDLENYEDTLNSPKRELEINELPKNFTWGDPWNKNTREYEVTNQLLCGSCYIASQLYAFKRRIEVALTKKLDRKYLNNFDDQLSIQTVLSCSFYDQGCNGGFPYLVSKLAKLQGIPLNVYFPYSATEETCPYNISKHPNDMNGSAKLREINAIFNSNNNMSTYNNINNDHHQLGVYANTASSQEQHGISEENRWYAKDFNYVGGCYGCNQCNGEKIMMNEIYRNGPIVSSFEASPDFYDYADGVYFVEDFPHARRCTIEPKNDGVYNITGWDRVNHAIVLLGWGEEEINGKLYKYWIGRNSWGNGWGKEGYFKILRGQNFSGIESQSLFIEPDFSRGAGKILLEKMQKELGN
Design: species or system P. falciparum D10 trophozoite lysates; single well
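Also: 30 min substrate incubation versus DMSO and 10 µM JCP410 controls.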

Going from O=C(Nc1ccccc1[N+](=O)[O-])c1cc2ccccc2oc1=O to CC(Oc1ccccc1F)C(=O)Nc1ccc2ccccc2c1 (stereo not drawn), the “% Inhibition @ 10 uM” value falls from 1.8% to -7.08%.

Compared with O=C(CNC(=O)C1CCCCC1)Nc1nc(CC23CC4CC(CC(C4)C2)C3)cs1, COc1ccc(CCNC(=O)NC2CCCCC2)cc1 is higher in “% Inhibition @ 10 uM” value: -1.47% for the first, 0.795% for the second.

Compared with CCNc1nc(SC(C)C(=O)Nc2ccccc2)nc(N2CCOCC2)n1 (stereo not drawn), O=C(COc1nsnc1N1CCOCC1)Nc1ccc2c(c1)OCCO2 is higher in “% Inhibition @ 10 uM” value: -4.01% for the first, 1.93% for the second.

First: CC1CCC(N2CCC(N3CCCCC3)CC2)C1 (stereo not drawn)
Second: COc1ccc(S(=O)(=O)N2CCC(C(=O)N3CCC(C)CC3)CC2)cc1OC
The “% Inhibition @ 10 uM” value of the first is higher: -3.8% for the first, -9.24% for the second.

Going from O=C(CN1C(=O)S/C(=C/c2ccccc2Cl)C1=O)Nc1ccc(F)cc1 to O=C(Nc1ccc(F)cc1)c1ccc(Br)cc1, the “% Inhibition @ 10 uM” value falls from 7.85% to -7.5%.

First: COc1ccccc1C1NC(=O)c2sc(=S)n(-c3ccccc3)c2N1 (stereo not drawn)
Second: CC1=C(C(=O)Nc2ccccc2C)C(c2cccc(Br)c2)NC(=O)N1 (stereo not drawn)
The “% Inhibition @ 10 uM” value of the first is higher: 6.66% for the first, -1.36% for the second.

Going from COc1ccc(CCNC(=O)c2cn(C3CCCC3)c(=O)c3c2c2ccccc2n3C)cc1OC to COc1ccc(-c2noc(C(=O)NCc3ccc(F)cc3)n2)cc1OC, the “% Inhibition @ 10 uM” value rises from -1.58% to 1.76%.

Going from COc1ccc(-c2noc(CN(C(=O)C(c3ccccc3)c3ccccc3)C(C)C)n2)cc1 to CCCc1nc(-c2ccc(-c3ccc(C)cc3)nc2OC)no1, the “% Inhibition @ 10 uM” value rises from -0.352% to 2.1%.

First: CCOc1cc(CN2CCN(c3ccccn3)CC2)ccc1OC
Second: COc1cccc(CN2CCN(Cc3cccnc3)CC2)c1
The “% Inhibition @ 10 uM” value of the first is lower: 0.605% for the first, 0.76% for the second.

Going from CCN1CCCC1CNC(=O)C1c2ccccc2C(=O)N(CCOC)C1c1cccs1 (stereo not drawn) to CCC1SC2=NC(C)=C(C(=O)OCCOC)C(c3ccc(OCc4ccccc4)cc3)N2C1=O (stereo not drawn), the “% Inhibition @ 10 uM” value rises from -1.48% to 3.87%.

Going from Cc1ccc(CNC(=O)CCc2c(C)nc3c(c(C)nn3C(C)(C)C)c2C)cc1 to CCc1ccc(CNC(=O)CCC(=O)n2ncc3cc(C)ccc32)cc1, the “% Inhibition @ 10 uM” value rises from -4.24% to -1.11%.

First: COc1ccc(-c2onc(C)c2C)cc1S(=O)(=O)NCCCN1CCCC1=O
Second: CCCN1C(=O)c2[nH]nc(-c3ccccc3O)c2C1c1cc(Br)c(O)c(OC)c1 (stereo not drawn)
The “% Inhibition @ 10 uM” value of the first is lower: 0.879% for the first, 3.62% for the second.

Going from CC(=O)NS(=O)(=O)c1cccnc1Nc1ccc(Cl)c(C(F)(F)F)c1 to O=S1(=O)N=C(Nc2ccccc2Cl)c2ccccc21, the “% Inhibition @ 10 uM” value rises from -1.51% to 4.26%.

First: Cc1cccc(NC(=O)C(CC(C)C)N2C(=O)c3ccccc3C2=O)c1 (stereo not drawn)
Second: O=C(O)c1ccc2c(c1)C(=O)N(C(Cc1ccccc1)C(=O)O)C2=O (stereo not drawn)
The “% Inhibition @ 10 uM” value of the first is higher: -0.469% for the first, -7.08% for the second.

First: Sc1n[nH]c2nc3nc4ccccc4c-3nn12
Second: Nc1ncc(Cc2cccc3ccccc23)s1
The “% Inhibition @ 10 uM” value of the first is higher: 3.43% for the first, 1.33% for the second.

Compared with O=C(c1cc2c(s1)-c1ccccc1OC2)N1CCN(c2ccccn2)CC1, CCN1CCN(C(=O)c2cnn(-c3ccccc3)c2-n2cccc2)CC1 is lower in “% Inhibition @ 10 uM” value: 6.41% for the first, -7.1% for the second.

Compared with O=C1C2C3C=CC(C3)C2C(=O)N1Cc1ccco1 (stereo not drawn), O=C1C2C3C=CC(C3)C2C(=O)N1c1cccc(Cl)c1 (stereo not drawn) is lower in “% Inhibition @ 10 uM” value: 0.275% for the first, -0.996% for the second.

First: O=C(CC(O)(c1ccccc1)C(F)(F)F)c1ccccc1 (stereo not drawn)
Second: Cn1c(=O)c2c(nc(N3CCN(Cc4ccccc4)CC3)n2CC(=O)c2ccccc2)n(C)c1=O
The “% Inhibition @ 10 uM” value of the first is higher: 1.63% for the first, -1.24% for the second.

Compared with COc1ccc(C(=O)Nc2sc3c(c2C(N)=O)CCCCCC3)c(OC)c1, Cc1ccc(C(=O)Nc2sc3c(c2C(N)=O)CCCC3)cc1Br is lower in “% Inhibition @ 10 uM” value: 28.3% for the first, 0.795% for the second.

First: Cc1ccsc1CN(C(=O)c1ccco1)C1CCS(=O)(=O)C1 (stereo not drawn)
Second: CCN1C(=O)c2ccccc2S1(=O)=O
The “% Inhibition @ 10 uM” value of the first is lower: 2.19% for the first, 3.74% for the second.

Going from CCOC(=O)c1c(NC(=O)C(F)(F)F)sc2c1CCN(C(=O)OCC)C2 to Cc1ccc(N2CCN(c3ccc(NC(=O)CCC(=O)O)cc3)CC2)cc1, the “% Inhibition @ 10 uM” value falls from 6.23% to 0.214%.

Going from Fc1ccc(N2CCN(Cc3c[nH]c4ccccc34)CC2)cc1 to Cc1ccc(S(=O)(=O)N(CC(=O)Nc2ccc3c(c2)OCCO3)Cc2ccccc2F)cc1, the “% Inhibition @ 10 uM” value falls from 2.23% to 0.145%.

First: CCN(CC)c1ccc2c(COC(C)=O)cc(=O)oc2c1
Second: CCCCN(CC)CCNC(=O)CN1C(=O)CSc2c1c(C)nn2-c1ccccc1
The “% Inhibition @ 10 uM” value of the first is lower: -0.13% for the first, 2.65% for the second.

Compared with CCCCCC(C#N)NC(=O)[C@H](CC(C)C)NC(=O)OCc1ccccc1 (stereo partly drawn), COC(=O)C#CC(CC(C)C)NC(=O)[C@H](Cc1ccccc1)NC(=O)[C@H](CC(C)C)NC(=O)[C@H](CCc1ccccc1)NC(C)=O (stereo partly drawn) is lower in “% Inhibition @ 10 uM” value: 0.174% for the first, -3.14% for the second.

Compared with COc1ccc(C(=O)NCC(c2cccnc2)N(C)C)cc1 (stereo not drawn), COc1cccc(C2C(C(=O)Nc3cccnc3)=C(C)Nc3nc(-c4cccc(C)c4)nn32)c1OC (stereo not drawn) is higher in “% Inhibition @ 10 uM” value: -2.29% for the first, -1.47% for the second.

Compared with Brc1ccc(SCCc2ccncc2)cc1, CC(C)N(Cc1ccccc1)S(=O)(=O)c1ccc(Cl)cc1 is higher in “% Inhibition @ 10 uM” value: -1.29% for the first, -1.22% for the second.

First: Cc1cc(C(=O)NC(C)C)cc(S(=O)(=O)NC(C)C)c1C
Second: CC(C)[C@H](NC(=O)c1ccc(-c2ccccc2Cl)c(Cl)c1)C(=O)NCC#N
The “% Inhibition @ 10 uM” value of the first is higher: -3.92% for the first, -5.04% for the second.

First: CCC(Cc1ccccc1)NC(=O)Cn1cc2c(n1)CCCC2 (stereo not drawn)
Second: COc1cc(C(CC(=O)N2CCC3(CC2)OCCO3)N2Cc3ccccc3C2=O)cc(OC)c1OC (stereo not drawn)
The “% Inhibition @ 10 uM” value of the first is higher: -1.8% for the first, -7.28% for the second.

Compared with CCN(CC)CCN(CC)Cc1c(F)cccc1Cl, CC(=O)c1nnn(-c2ccc(F)c(Cl)c2)c1C is higher in “% Inhibition @ 10 uM” value: -1.21% for the first, -0.256% for the second.

First: O=C(Nc1nc[nH]n1)c1ccco1
Second: CC1Cc2cc(C(=O)C3=C(O)C(=O)N(Cc4ccco4)C3c3cccs3)ccc2O1 (stereo not drawn)
The “% Inhibition @ 10 uM” value of the first is lower: -1.46% for the first, 2.43% for the second.

Compared with Cn1c(=O)c2c(ncn2Cc2ccc(Cl)cc2Cl)n(C)c1=O, COc1ccc(/C=C2\S/C(=N/c3ccc(C(=O)O)cc3)N(C)C2=O)c(OC)c1 is higher in “% Inhibition @ 10 uM” value: 1.26% for the first, 12.7% for the second.

In the case of CCC[C@H](NC(=O)C1(NC(=O)N2CCN(C)CC2)CCCCC1)C(=O)c1nnc(-c2ccc(OC)cc2)o1, the “% Inhibition @ 10 uM” value is reported as 1.7%.
